{
  "source": "the BET-seq Pho4 binding data (Le et al. 2018)",
  "note": "Some of the results follow. These are noisy estimates, calculated here from bound and input reads.",
  "data": [
    {"molecular_target": "T1, Pho4 (S. cerevisiae) (UniProt P07270)", "T1 sequence": "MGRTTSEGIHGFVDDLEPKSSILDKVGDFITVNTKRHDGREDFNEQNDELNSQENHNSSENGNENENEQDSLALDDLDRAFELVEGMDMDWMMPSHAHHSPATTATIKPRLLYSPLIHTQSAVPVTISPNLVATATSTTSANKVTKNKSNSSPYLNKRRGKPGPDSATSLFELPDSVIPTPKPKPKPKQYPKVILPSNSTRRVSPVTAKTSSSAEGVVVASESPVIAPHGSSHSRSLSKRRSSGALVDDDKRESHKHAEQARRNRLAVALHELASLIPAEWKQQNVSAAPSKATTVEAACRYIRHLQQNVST", "assay": "relative binding free energy (BET-seq); higher = weaker binding", "settings": "reference: library average", "units": {"relative binding free energy": "kcal/mol"}, "values": [
      {"sequence": "ATATTCACGTGTGTTT", "relative binding free energy": 0.21},
      {"sequence": "ATCGGCACGTGGGTGA", "relative binding free energy": -0.3},
      {"sequence": "ATGGACACGTGTATTT", "relative binding free energy": 0.19},
      {"sequence": "TTTTACACGTGCCTGG", "relative binding free energy": 0.04},
      {"sequence": "GCTGGCACGTGTGGCG", "relative binding free energy": 0.03},
      {"sequence": "GGTAGCACGTGCATGA", "relative binding free energy": 0.01},
      {"sequence": "GGGTTCACGTGAGAAA", "relative binding free energy": 0.35},
      {"sequence": "TGTAGCACGTGGTTAC", "relative binding free energy": -0.1},
      {"sequence": "AGGGTCACGTGTATAT", "relative binding free energy": 0.13},
      {"sequence": "AGCGCCACGTGGTGGA", "relative binding free energy": -0.06},
      {"sequence": "TGTGGCACGTGATGGA", "relative binding free energy": 0.04},
      {"sequence": "TGGGTCACGTGAGTAC", "relative binding free energy": 0.2},
      {"sequence": "GGTTGCACGTGTAGAC", "relative binding free energy": -0.05},
      {"sequence": "GGTCGCACGTGCGTGT", "relative binding free energy": -0.11},
      {"sequence": "CGTTTCACGTGTATTT", "relative binding free energy": 0.2},
      {"sequence": "TGGCACACGTGTGTGG", "relative binding free energy": -0.04},
      {"sequence": "GTGGTCACGTGGGCCG", "relative binding free energy": 0.01},
      {"sequence": "ATTAGCACGTGAAATG", "relative binding free energy": 0.21},
      {"sequence": "CTTTTCACGTGTAGTA", "relative binding free energy": 0.28},
      {"sequence": "GTGTCCACGTGGGAGC", "relative binding free energy": 0.05},
      {"sequence": "ATAATCACGTGCTGTG", "relative binding free energy": 0.07},
      {"sequence": "TAATACACGTGAAGTA", "relative binding free energy": 0.42},
      {"sequence": "AGATGCACGTGAGGGG", "relative binding free energy": 0.29},
      {"sequence": "TCGTTCACGTGCGGAG", "relative binding free energy": 0.41},
      {"sequence": "TTTCTCACGTGGGGAT", "relative binding free energy": 0.12},
      {"sequence": "GGGCTCACGTGAGTGT", "relative binding free energy": 0.39},
      {"sequence": "ATGTACACGTGGCGTG", "relative binding free energy": -0.06},
      {"sequence": "AGGGTCACGTGCGGGA", "relative binding free energy": 0.09},
      {"sequence": "CTGTGCACGTGTGTAA", "relative binding free energy": 0},
      {"sequence": "TGATGCACGTGCGGTC", "relative binding free energy": -0.06},
      {"sequence": "TGAATCACGTGGGTTA", "relative binding free energy": 0.1},
      {"sequence": "AAGATCACGTGTGGGT", "relative binding free energy": 0.15},
      {"sequence": "GGAAGCACGTGGCTGG", "relative binding free energy": -0.08},
      {"sequence": "ATAAACACGTGGTCGT", "relative binding free energy": 0.04},
      {"sequence": "TTGTGCACGTGCGTAT", "relative binding free energy": -0.12},
      {"sequence": "GAATGCACGTGTTTGA", "relative binding free energy": 0.08},
      {"sequence": "TCGGCCACGTGTGTGA", "relative binding free energy": 0.05},
      {"sequence": "GGGCGCACGTGGAGCG", "relative binding free energy": -0.02},
      {"sequence": "TGGTTCACGTGAGCGC", "relative binding free energy": 0.3},
      {"sequence": "CGGTGCACGTGAGGTG", "relative binding free energy": 0.22},
      {"sequence": "TGTCGCACGTGAAGTA", "relative binding free energy": 0.22},
      {"sequence": "AGATTCACGTGATTAT", "relative binding free energy": 0.25},
      {"sequence": "GGTAGCACGTGGCGAT", "relative binding free energy": -0.13},
      {"sequence": "GTAAACACGTGCGGGG", "relative binding free energy": -0.02},
      {"sequence": "TATCTCACGTGGATGG", "relative binding free energy": 0.26},
      {"sequence": "GTATACACGTGCATGT", "relative binding free energy": 0.01},
      {"sequence": "AGGCTCACGTGGGAGT", "relative binding free energy": 0.15},
      {"sequence": "AAATTCACGTGATGCT", "relative binding free energy": 0.39},
      {"sequence": "TACGGCACGTGTTATG", "relative binding free energy": -0.21},
      {"sequence": "AGCAACACGTGGTGTT", "relative binding free energy": -0.08},
      {"sequence": "TGTAACACGTGTGGTT", "relative binding free energy": 0.15},
      {"sequence": "GTGGTCACGTGGCAAG", "relative binding free energy": 0.02},
      {"sequence": "GATTACACGTGCTGTG", "relative binding free energy": 0.24},
      {"sequence": "TATCTCACGTGTTTTG", "relative binding free energy": 0.18},
      {"sequence": "GTAATCACGTGGGTCG", "relative binding free energy": -0.01},
      {"sequence": "CATTTCACGTGTTTAG", "relative binding free energy": 0.31},
      {"sequence": "AGCGGCACGTGGTGTG", "relative binding free energy": -0.39},
      {"sequence": "ATGGACACGTGTGTGA", "relative binding free energy": -0.09},
      {"sequence": "GTGTTCACGTGATTTG", "relative binding free energy": 0.43},
      {"sequence": "GATTACACGTGTGGGC", "relative binding free energy": 0.22},
      {"sequence": "GAGGTCACGTGTGAGC", "relative binding free energy": 0.36},
      {"sequence": "GCGGGCACGTGTGCTG", "relative binding free energy": -0.13},
      {"sequence": "GTGCACACGTGTGTTT", "relative binding free energy": -0.03},
      {"sequence": "GTGCACACGTGGTTGG", "relative binding free energy": 0},
      {"sequence": "AGAAGCACGTGTGTTC", "relative binding free energy": 0.03},
      {"sequence": "GTAGTCACGTGAAAGG", "relative binding free energy": 0.21},
      {"sequence": "TGCAACACGTGGTTGA", "relative binding free energy": -0.07},
      {"sequence": "CGGGGCACGTGAGAGG", "relative binding free energy": 0.24},
      {"sequence": "TGAAACACGTGAGTGT", "relative binding free energy": 0.28},
      {"sequence": "CGGTACACGTGGGTCT", "relative binding free energy": 0.06},
      {"sequence": "GGCATCACGTGGGGGT", "relative binding free energy": -0.08},
      {"sequence": "TTGGGCACGTGGGATG", "relative binding free energy": -0.07},
      {"sequence": "TGTCTCACGTGGTTAG", "relative binding free energy": -0.06},
      {"sequence": "TGTGTCACGTGCCGGT", "relative binding free energy": -0.13},
      {"sequence": "TTCTTCACGTGAAGTG", "relative binding free energy": 0.35},
      {"sequence": "ATTGTCACGTGGTGCC", "relative binding free energy": 0.08},
      {"sequence": "AACAGCACGTGTTGGT", "relative binding free energy": -0.08},
      {"sequence": "GTTTACACGTGGGGAC", "relative binding free energy": 0.23},
      {"sequence": "GTATACACGTGTTCGT", "relative binding free energy": 0},
      {"sequence": "GGGGGCACGTGGGGCC", "relative binding free energy": -0.33},
      {"sequence": "TTAAACACGTGTGAAG", "relative binding free energy": 0.08},
      {"sequence": "ACTATCACGTGAGGGT", "relative binding free energy": 0.23},
      {"sequence": "AAGGACACGTGCGGGT", "relative binding free energy": 0.03},
      {"sequence": "CGTTGCACGTGGTGAA", "relative binding free energy": 0},
      {"sequence": "AAGGTCACGTGAAGGC", "relative binding free energy": 0.25},
      {"sequence": "GTTTGCACGTGTGAGA", "relative binding free energy": 0.11},
      {"sequence": "GGGCACACGTGATCGG", "relative binding free energy": 0.19},
      {"sequence": "CTTATCACGTGTGTTC", "relative binding free energy": 0.34},
      {"sequence": "GTCGTCACGTGTACGG", "relative binding free energy": 0.12},
      {"sequence": "AGTGTCACGTGTTACG", "relative binding free energy": 0.04},
      {"sequence": "GGTTACACGTGTCGCG", "relative binding free energy": 0.24},
      {"sequence": "TGGCGCACGTGTGTGG", "relative binding free energy": 0.03},
      {"sequence": "AGGGGCACGTGCAGAG", "relative binding free energy": -0.18},
      {"sequence": "GGGTTCACGTGCTTCG", "relative binding free energy": 0.31},
      {"sequence": "CATTGCACGTGAGTGT", "relative binding free energy": 0.13},
      {"sequence": "GTTGTCACGTGAGAGC", "relative binding free energy": 0.23},
      {"sequence": "TGCGTCACGTGGCCGG", "relative binding free energy": -0.16},
      {"sequence": "CGGGACACGTGTGGGA", "relative binding free energy": 0.05},
      {"sequence": "CATAGCACGTGGAAGT", "relative binding free energy": 0.11},
      {"sequence": "CTGAGCACGTGGTTGT", "relative binding free energy": -0.18},
      {"sequence": "GCTATCACGTGGGGGT", "relative binding free energy": -0.04},
      {"sequence": "CTATGCACGTGAGGAG", "relative binding free energy": 0.25},
      {"sequence": "TAGTACACGTGGAAAT", "relative binding free energy": 0.22},
      {"sequence": "TGGTTCACGTGATAGT", "relative binding free energy": 0.37},
      {"sequence": "CGGCTCACGTGATGGG", "relative binding free energy": 0.22},
      {"sequence": "GGGCGCACGTGCAGTG", "relative binding free energy": 0.02},
      {"sequence": "GCATGCACGTGGCAGG", "relative binding free energy": -0.01},
      {"sequence": "CTAGGCACGTGGGTCG", "relative binding free energy": -0.21},
      {"sequence": "TAGCGCACGTGGATAT", "relative binding free energy": -0.05},
      {"sequence": "TTTAGCACGTGTGCGG", "relative binding free energy": -0.07},
      {"sequence": "AGTTTCACGTGGTCAG", "relative binding free energy": 0.14},
      {"sequence": "AGTTTCACGTGGATAT", "relative binding free energy": 0.24},
      {"sequence": "ATTTACACGTGGGTCT", "relative binding free energy": -0.11},
      {"sequence": "GCAGGCACGTGTGGCG", "relative binding free energy": 0.11},
      {"sequence": "CTTAGCACGTGAGTGG", "relative binding free energy": 0.05}
    ]}
  ]
}
